Among all 280,000 compounds or so, about 1,100 (0.39%) were called active. Inconclusive means that the source gave no clear call. Such entries were picked first, then a sample of the others. The call rests on the fitted dose curve; in most records, active means well fitted inhibition curve with a large enough effect; inconclusive means small, poorly fitted or top-dose-only effect, or effect the other way; inactive means flat fitted curve, though single readings scatter. Potencies beside an inconclusive call are fits to weak or partial responses and may not hold up.
target: Microtubule-associated protein tau (Homo sapiens) (UniProt P10636); test: qHTS for Inhibitors of Tau Fibril Formation, Fluorescence Polarization; conditions: K18 P301L tau heparin fibrillization, Alexa594 FP, 6 h; series mostly up to 57.7 µM; further: nearly all actives have a fitted effect of over 55% in size
Outline: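 Quantitative HTS format: compounds meet 15 uM recombinant K18 P301L tau and Alexa 594-tau tracer in 100 mM sodium acetate pH 7; 20 uM heparin triggers fibrillization at 37 C over 6 hr; FP gives the signal.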
On the % scale 0 is the no-effect control and ±100 the full control effect; potency means the concentration at half of the fitted maximal effect; tags describe the fitted curve by direction and shape.

UniProt P10636, sequence (P10636 whole entry, looked up): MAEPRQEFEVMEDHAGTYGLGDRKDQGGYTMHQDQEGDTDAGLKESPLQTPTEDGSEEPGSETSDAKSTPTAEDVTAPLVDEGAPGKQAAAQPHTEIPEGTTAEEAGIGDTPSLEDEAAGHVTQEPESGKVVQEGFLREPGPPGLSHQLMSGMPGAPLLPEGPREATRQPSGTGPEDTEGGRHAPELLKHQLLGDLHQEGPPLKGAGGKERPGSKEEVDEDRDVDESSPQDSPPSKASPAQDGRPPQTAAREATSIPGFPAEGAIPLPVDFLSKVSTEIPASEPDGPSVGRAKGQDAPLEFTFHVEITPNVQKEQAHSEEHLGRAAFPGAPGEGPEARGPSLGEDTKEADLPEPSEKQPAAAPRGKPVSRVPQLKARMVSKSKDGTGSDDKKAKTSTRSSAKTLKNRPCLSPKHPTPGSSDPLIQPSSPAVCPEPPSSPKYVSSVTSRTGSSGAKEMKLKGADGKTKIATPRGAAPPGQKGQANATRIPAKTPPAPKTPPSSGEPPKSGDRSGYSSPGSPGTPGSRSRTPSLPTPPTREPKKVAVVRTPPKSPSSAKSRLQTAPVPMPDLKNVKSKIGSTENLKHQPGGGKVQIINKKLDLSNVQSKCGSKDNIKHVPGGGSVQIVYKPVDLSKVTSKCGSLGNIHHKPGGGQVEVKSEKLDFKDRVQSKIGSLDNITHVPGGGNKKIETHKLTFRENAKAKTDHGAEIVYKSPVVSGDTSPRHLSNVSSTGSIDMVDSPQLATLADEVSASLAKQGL

Potency, inactive:
Nc1ccc(-n2nnnc2CN2CCOCC2)cc1
COc1ccc(CCC(C)Nc2cccc(F)c2)cc1 (configuration not stated)
Cc1ccc(Nc2nn3c(=O)c4cc5c(cc4nc3s2)OCO5)cc1Cl
COc1ccc(NC(=O)CSc2ncccc2C(=O)OC(C)C)cc1OC
CCC(Cn1nnc2ccccc2c1=O)NC(=O)Nc1ccc(C)c(C)c1 (configuration not stated)
O=C(CCNC(=O)c1ccc([N+](=O)[O-])cc1)Nc1nccs1
COc1ccc(COC(=O)C2=C(C)NC(=O)NC2c2ccc(O)c(OC)c2)cc1 (configuration not stated)
Cc1ccc(Cn2c(=O)n(CCCC(=O)NCc3ccccc3Cl)c(=O)c3ccccc32)cc1
CC1Cc2cc(/C(O)=C3/C(=O)C(=O)N(Cc4ccco4)C3c3cccs3)ccc2O1 (configuration not stated)
Cc1nn(-c2ccccc2)c(Cl)c1C1C(C#N)=C(N)Oc2c1c(C)nn2-c1ccccc1 (configuration not stated)
CC(CCC(=O)O)C1CCC2C3C(=O)C[C@@H]4CC(=O)CC[C@@]4(C)C3CC(=O)[C@]12C (some centres not stated)
COc1ccccc1N1CCN(C(=O)CCc2nnc3n(C)c(=O)c4sccc4n23)CC1
CC/C=C\C[C@H]1C(=O)CC[C@@H]1CC(=O)O
C=CCC(Nc1ccc(OC)cc1)(C(=O)OCC)c1ccccc1 (configuration not stated)
Cn1cccc1Cc1nnc(SCC(=O)Nc2nccs2)n1CCc1ccccc1
c1ccc(-c2csc3ncnc(N4CCc5ccccc5C4)c23)cc1
CC(C(=O)O)N1C(=O)/C(=C/c2cccn2C)SC1=S (configuration not stated)
N#Cc1c(N)nc2c(c1-c1ccc(Br)s1)CCCC2
O=C(CCc1nc2ccccc2[nH]1)Nc1ccc2c(c1)OCO2
CC1=C(C(=O)Nc2ccccn2)C(c2ccccc2Cl)NC(=S)N1 (configuration not stated)
COc1cccc(-c2nnc(Nc3nc4c(F)cccc4s3)o2)c1
O=C(CN(CCc1ccccc1)S(=O)(=O)c1ccc(Br)cc1)NCc1ccc(Cl)cc1
C=CCn1c(C(CCCC)CC(O)COCC(C)C)n[nH]c1=S (configuration not stated)
Cc1cccc(NC(=O)CCC(=O)OCC(=O)c2ccc(Oc3ccc([N+](=O)[O-])cc3)cc2)c1
CC(=O)CSc1nnc(Cc2ccc3c(c2)OCO3)o1
Cc1cccc(C)c1NC(=S)NC(=O)c1ccccc1F
CCOc1cc(C(=O)Nc2ccc(C)cc2C)ccc1OCC(=O)N1CCCCC1
Cc1cc(C)c(C(CC(=O)c2cccs2)C(C#N)C#N)c(C)c1 (configuration not stated)
CCOC(=O)c1c(C)sc(-c2c(-c3cc(C)ccc3C)[nH]c3c2c(=O)n(C)c(=O)n3C)c1O
O=C(Cc1cc(=O)[nH][nH]1)N/N=C/c1c(Cl)cccc1Cl
COC(=O)CNC(=O)C1(C)C=CC2(CCCCC2)N1C(=O)OC (configuration not stated)
CN(C)c1ccc(C2CC(c3ccccc3)=Nc3nc(-c4ccccc4)cn32)cc1 (configuration not stated)

Potency, active:
Cc1ccc(C(C)NC(=O)/C(C#N)=C\c2c(C)[nH]c3ccccc23)cc1 (configuration not stated) 25.1 µM

Potency, inconclusive:
O=C1CC(C(=O)N2CCOCC2)C2(CCCC2)O1 (configuration not stated) 31.6 µM [inhibitor, single point]
CCc1ccc(C(=O)c2cncc(Br)c2)cc1 8.91 µM [inhibitor, single point]
CC1=C(C#N)C(c2cn(-c3ccccc3)nc2-c2cccs2)C(C#N)=C(C)N1 31.6 µM [inhibitor, single point]
Cc1ccc2c(c1)N=C(c1ccccc1)CC(C(Cl)Cl)=N2 44.7 µM [inhibitor, single point]
COc1cccc(NS(=O)(=O)c2ccc(-c3cc(C)no3)s2)c1 31.6 µM [inhibitor, partial curve]
N#C/C(=C\c1coc2ccc(O)cc2c1=O)C(=O)Nc1nc2ccccc2s1 39.8 µM [inhibitor, single point]
O=C(c1ccco1)c1cn(CCOc2ccc(F)cc2)c2ccccc12 5.62 µM [inhibitor, partial curve, poor fit]
N#CCn1cc(/C=N/NC(=O)c2cc3c(ccc4ccccc43)o2)c2ccccc21 44.7 µM [inhibitor, single point]
Cc1ccc(/C=C/c2nc3ccccc3[nH]2)cc1 35.5 µM [inhibitor, single point]
CCC(c1nnnn1Cc1ccccc1)N(Cc1ccco1)Cc1cc2cc(OC)ccc2[nH]c1=O (configuration not stated) 25.1 µM [inhibitor, partial curve]
CC(C)c1ccc(NC(=O)Cn2c(=O)n(CCc3ccccc3)c(=O)c3ccccc32)cc1 22.4 µM [inhibitor, partial curve]
Brc1ccc(-c2cn3nc4c(nc3n2)CCCC4)cc1 15.8 µM [inhibitor, partial curve]
O=C(Cn1nc(-c2ccccc2)nc(Cc2ccccc2)c1=O)Nc1ccccc1 14.1 µM [inhibitor, partial curve]
CCOc1ccc(C(=O)NCC(=O)OCc2c(F)cccc2Cl)cc1OCC 7.94 µM [inhibitor, single point]
CCc1ccc(NC(=O)Cn2c(=O)n(Cc3nc(-c4ccccc4)no3)c(=O)c3cc4c(cc32)OCO4)cc1 31.6 µM [inhibitor, partial curve]
Cc1ccc(S(=O)(=O)Oc2ccc(/C=N/NC(=O)c3cccnc3)cc2)cc1 10 µM [inhibitor, partial curve]
Cc1ccc(NC(=O)C2CCCN2S(=O)(=O)c2ccc3nc(-c4ccccc4)[nH]c3c2)cc1F (configuration not stated) 28.2 µM [inhibitor, partial curve]
CSc1ccc(CCNC(=O)Cn2ncc3c(=O)oc4ccccc4c32)cc1 11.2 µM [inhibitor, partial curve, poor fit]
Cc1ccccc1C(=O)Nc1ccc(C(=O)NNC(=O)CCCOc2ccc(Cl)cc2Cl)cc1 31.6 µM [inhibitor, single point]
COc1ccc2c(c1)O[C@@H](c1ccc3c(c1)OCO3)[C@H](OC(=O)Nc1ccc(C)c(Br)c1)C2=O 35.5 µM [inhibitor, single point]
CC1=C(CCC(=O)O)c2cc3nc(cc4[nH]c(cc5[nH]c(cc1n2)c(C)c5C(C)O)c(C)c4C(C)O)C(C)=C3CCC(=O)O (configuration not stated) 28.2 µM [inhibitor, single point]
Cc1cc(C)c2[nH]c(=O)c(C(c3nnnn3CC3CCCO3)N3CCCC(C)C3)cc2c1 (configuration not stated) 39.8 µM [inhibitor, single point]
Cn1c(CNC(=O)C(C)(C)C)nc2ccccc21 7.94 µM [inhibitor, single point]
N/C(=N\N=C\c1ccnc2ccccc12)SC1CC(=O)N(c2ccc(Br)cc2)C1=O (configuration not stated) 2 µM [inhibitor, full curve, poor fit]
O=C(c1cccc(Cl)c1)N1CCN(c2ncnc3c2cnn3-c2ccccc2)CC1 14.1 µM [activator, partial curve, poor fit]
CCOc1ccc(/C=C/c2nc(C#N)c(N3CCCCC3)o2)cc1 3.16 µM [activator, full curve]
O=c1[nH]cnc2c1cnn2Cc1ccccc1 39.8 µM [inhibitor, single point]
CCC1CN(C(=O)C2CCN(S(=O)(=O)c3c(C)noc3/C=C/c3ccccc3F)CC2)c2cc(Cl)ccc2O1 (configuration not stated) 44.7 µM [inhibitor, single point]
COc1ccc(-c2cc(-c3cccs3)nc(OC)c2C#N)cc1OC 14.1 µM [inhibitor, partial curve]
COC(=O)c1ccc(NC(=O)CCc2c(C)nc3c(-c4ccccc4)c(C)nn3c2C)cc1 10 µM [inhibitor, partial curve, poor fit]
C=CCn1c(O)c(CN2CCN(Cc3ccccc3)CC2)c(C)c(C#N)c1=O 35.5 µM [inhibitor, partial curve]
Cc1ccc(CCNC(=O)c2cn(C)c3ccc(S(=O)(=O)N(C)C4CCCCC4)cc3c2=O)cc1 20 µM [inhibitor, partial curve, poor fit]
CC(Oc1ccc(F)cc1)C(=O)Nc1nc(-c2ccc(F)cc2)ns1 (configuration not stated) 28.2 µM [inhibitor, partial curve]
O=C(Nc1cnn(Cc2c(Cl)cccc2Cl)c1)c1ccc([N+](=O)[O-])cc1 39.8 µM [inhibitor, single point]
O=C(NCc1ccc2c(c1)CCN2C(=O)c1ccccc1)Nc1cc(F)ccc1F 28.2 µM [inhibitor, single point]
O=C(CC1SC(=Nc2ccccc2)N(CCCO)C1=O)Nc1ccc(Cl)cc1 (configuration not stated) 35.5 µM [inhibitor, partial curve, poor fit]
CCCCC(=O)NN(C)c1nc(-c2ccccc2)nnc1C(F)(F)F 39.8 µM [inhibitor, single point]
CCCCNC(=O)c1ccc2nc(-c3ccco3)c(-c3ccco3)nc2c1 11.2 µM [inhibitor, partial curve]

activity, negative = inhibition, inactive:
CC1CCC2C(=O)N3C(CCC(C)C3c3ccccc3Br)C(=O)N2C1c1ccc(C#CCN(C)C)cc1 (configuration not stated) -0.254% [at 11.6 µM]

Source: PubChem BioAssay AID1468 (National Center for Advancing Translational Sciences (NCATS), 2008)
